# Experimental data reported in article PMC12040169 (PLOS Biology, 2025).
# Some of the results follow.
# System: T1, C. trachomatis L2/434/Bu expressing GFP (CTL2-GFP)
# T1 construct: L2/434/Bu GFP intracellular growth in HeLa cells
# Design: species or system HeLa; C. trachomatis total inclusion area by high-content imaging, normalised to DMSO
# Conditions: total inclusion area; 28.5 h, 10 µM; inhibitor
# How it was run: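 High-content images of fixed, Hoechst-stained infected cultures supply inclusion area and count (growth) plus nuclei number (viability), complementing bulk GFP/resorufin fluorescence. MIC determination is unchanged from the primary assay.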
row,Structure (SMILES),% of control remaining
1,Cc1ccc(NC(=O)Cn2cnc3c2c(=O)n(C)c(=O)n3C)c(C)c1 [CBK133276],101.728
2,Cc1nc([N+](=O)[O-])cn1CCC(=O)Nc1ccccc1Oc1ccccc1Cl [CBK298319],86.8759
3,Cc1c(Cl)c([N+](=O)[O-])nn1CC(=O)N1CCN(Cc2ccccc2)CC1 [CBK261720],94.3878
4,COc1ccc(C(=O)N2CCc3ccccc32)c(OC)n1 [CBK200281],104.049
5,O=C(CN1CCCC2(CCN(C(=O)c3ccoc3)C2)C1)Nc1ccc(F)c(Cl)c1 (centres unmarked) [CBK132822],84.8537
6,CCCCn1nc2[nH]c(=O)cc(C(F)F)c2c1C [CBK288011],69.729
7,COc1ccc(C2C=C(C)Nc3nc(N)nn32)cc1 (centres unmarked) [CBK287906],108.748
8,O=C(O)c1cccc(C(=O)c2cccc(C(=O)O)c2)c1 [CBK263933],108.077
9,COc1ccc(CN2CCC(N3CCc4ccccc4C3)CC2)cc1OCc1ccccc1 [CBK264629G],75.5834
10,CC(C)CC1OC(NC2CCCCCC2)=NC1=O (centres unmarked) [CBK074901],44.983
11,O=C(CC(NCCO)C(=O)O)Nc1cccc(C(F)(F)F)c1 (centres unmarked) [CBK267065],104.113
12,Cc1ccnc(SCC(=O)Nc2sc3c(c2C(=O)Nc2ccccc2)CCCC3)n1 [CBK266348],104.286
13,O=C(c1cccnc1)C1CCN(C(=O)c2ccccc2F)CC1 [CBK283853],81.1477
14,CCC(=O)N1CCCC1c1nc(C)c2c(n1)N(Cc1ccccc1OC)CCC2 (centres unmarked) [CBK285642],104.442
15,COC(=O)C(=O)N1CC[C@H]2NC(=O)N(Cc3ccccc3)C(=O)[C@H]21 [CBK289292],109.876
16,Cn1c(=O)n(CC(=O)NCCc2ccccc2)c2cccnc21 [CBK283910],111.734
17,C#CC1(OC(=O)CC)CCN(CCCC(=O)c2ccc(F)cc2)CC1 [CBK025277C],87.4338
18,O=C(Cc1cccc2ccccc12)Nc1nnc(C2=COCCO2)o1 [CBK287414],107.434
19,Cc1cccc2[nH]c(-c3ccccc3)nc12 [CBK000110],95.4168
20,Cc1ccc(C(=O)O)cc1S(=O)(=O)Nc1ccc(-c2cn3ccsc3n2)cc1 [CBK296688],97.1479
21,COc1ccc(F)c(CNCC2CCN(C(=O)OC(C)(C)C)CC2)c1 [CBK056716],101.126
22,Fc1ccccc1-c1nccnc1NCc1ccncc1 [CBK037540],106.95
23,O=C(/C=C\c1cn(-c2ccccc2)nc1-c1cccc([N+](=O)[O-])c1)n1nnc2ccccc21 [CBK265273],110.804
